Target: T1, recombinant hSIRPa (Sino Biologicals, reference 11612-H08H) (human, UniProt P78324, in part)
T1 construct: also called SIRPa-His; human SIRPa-His; not shown: His tag (histidine tail)
Assay: ELISA on immobilized SIRPa-His, peroxidase anti-human IgG, DO 450nm [panel PDL1]
Description: Method: For ELISA assay, recombinant hSIRPa (Sino Biologicals, Beijing, China; reference 11612-H08H) was immobilized on plastic at 0.5 μg/ml in carbonate buffer (pH9.2) and different modified anti-SIRPa antibodies were added to measure binding to SIRPa.

binding result: binds
B1: modified anti-SIRPa HEFLB antibody with ECD of PDL1 on the light chain (antibody, human IgG4 S228P, kappa)
heavy: EVQLVQSGAEVKKPGESLRISCKASGYSFTSYWVHWVRQMPGKGLEWMGNIDPSDSDTHYSPSFQGHVTLSVDKSISTAYLQLSSLKASDTAMYYCVRGGTGTLAYFAYWGQGTLVTVSSASTKGPSVFPLAPCSRSTSESTAALGCLVKDYFPEPVTVSWNSGALTSGVHTFPAVLQSSGLYSLSSVVTVPSSSLGTKTYTCNVDHKPSNTKVDKRV[sequence of human IgG4 Fc with S228P L445P (EU numbers) omitted]
light: DVVMTQSPLSLPVTLGQPASISCRSSQSLVHSYGNTYLYWFQQRPGQSPRLLIYRVSNRFSGVPDRFSGSGSGTDFTLKISRVEAEDVGVYYCFQGTHVPYTFGGGTKVEIKRTVAAPSVFIFPPSDEQLKSGTASVVCLLNNFYPREAKVQWKVDNALQSGNSQESVTEQDSKDSTYSLSSTLTLSKADYEKHKVYACEVTHQGLSSPVTKSFNRGECGGGGSGGGGSGGGG[sequence of about 200 residues omitted]
notes: as m32, ECD of PDL1; also called VH+VLprot (PDL1); HEF + LB-PDL1

— patent US20210179728A1 (OSE IMMUNOTHERAPEUTICS, published 2021)
